From the supplement of paper PMC4967469

How the values were obtained:
Test in all cases: Viability of human cancer cell lines after 72 h of drug (GDSC screen)
CAY10603 = compound: CC(C)(C)OC(=O)Nc1ccc(-c2cc(C(=O)NCCCCCCC(=O)NO)no2)cc1 [CAY10603]; details: top dose 20 µM; top dose inferred
Procedure: (§1)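 Human cancer cell lines in 384-well plates, medium with 10% serum, drug for 72 h over a 256-fold dose range (nine 2-fold or five 4-fold steps up to the top dose). Adherent lines were fixed and stained with the nucleic acid dye Syto60, suspension lines read with resazurin; signal relative to control wells, capped at 0 and 100%. One two-parameter sigmoid per drug and line, fitted in a mixed model over all curves with the slope shared within a line.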

CH5424802 = compound: CCc1cc2c(cc1N1CCC(N3CCOCC3)CC1)C(C)(C)c1[nH]c3cc(C#N)ccc3c1C2=O [CH5424802]; details: top dose 5.12 µM; top dose inferred
Procedure: as §1

ACHP (KIN001-260) = compound: N#Cc1c(C2CCNCC2)cc(-c2c(O)cccc2OCC2CC2)nc1N [ACHP (KIN001-260)]; details: top dose 20 µM; top dose inferred
Procedure: as §1

Row | Cell Line | AUC (CAY10603) | IC50 (CAY10603) [µM] | AUC (CH5424802) | IC50 (CH5424802) [µM] | AUC (ACHP (KIN001-260)) | IC50 (ACHP (KIN001-260)) [µM]
1 | SUP-HD1 (Hodgkin lymphoma, suspension) | 0.329 | 0.427 | 0.988 | > 5.12 | 0.868 | 16.8
2 | SUP-M2 (anaplastic large cell lymphoma, suspension) | 0.312 | 0.431 | 0.02 | < 0.02 | 0.911 | 16.3
3 | SUP-T1 (T-cell lymphoblastic leukaemia, suspension) | 0.356 | 0.52 | 0.907 | > 5.12 | 0.975 | > 20
4 | SW13 (adrenal gland, adherent) | 0.984 | > 20 | 0.988 | > 5.12 | 0.987 | > 20
5 | SW156 (kidney, adherent) | 0.829 | 14.4 | 0.974 | > 5.12 | 0.956 | > 20
6 | SW756 (cervix, adherent) | 0.767 | 8.84 | 0.982 | > 5.12 | 0.983 | > 20
7 | SW780 (bladder, adherent) | 0.921 | > 20 | 0.986 | > 5.12 | 0.986 | > 20
8 | SW837 (large intestine, adherent) | 0.442 | 0.825 | 0.979 | > 5.12 | 0.981 | > 20
9 | SW900 (lung squamous cell carcinoma, adherent) | 0.679 | 4.31 | 0.947 | > 5.12 | 0.978 | > 20
10 | SW954 (urogenital system, adherent) | 0.356 | 0.498 | 0.981 | > 5.12 | 0.952 | > 20
11 | SW962 (urogenital system, adherent) | 0.576 | 2.13 | 0.977 | > 5.12 | 0.951 | > 20
12 | SW1088 (glioma, adherent) | 0.774 | 10.3 | 0.982 | > 5.12 | 0.964 | > 20
13 | SW1116 (large intestine, adherent) | 0.748 | 8.56 | 0.986 | > 5.12 | 0.984 | > 20
14 | SW1417 (large intestine, adherent) | 0.683 | 4.45 | 0.957 | > 5.12 | 0.985 | > 20
15 | SW1463 (large intestine, adherent) | 0.857 | > 20 | 0.977 | > 5.12 | 0.978 | > 20
16 | SW1990 (pancreas, adherent) | 0.975 | > 20 | 0.985 | > 5.12 | 0.985 | > 20

Row | Cell Line | AUC (CAY10603) | IC50 (CAY10603) [µM] | AUC (CH5424802) | IC50 (CH5424802) [µM] | AUC (ACHP (KIN001-260)) | IC50 (ACHP (KIN001-260)) [µM]
17 | Saos-2 (osteosarcoma, adherent) | 0.981 | > 20 | 0.981 | > 5.12 | 0.981 | > 20
18 | SiHa (cervix, adherent) | 0.987 | > 20 | 0.986 | > 5.12 | 0.984 | > 20
19 | T47D (breast, adherent) | 0.522 | 1.48 | 0.932 | > 5.12 | 0.953 | > 20
20 | T98G (glioma, adherent) | 0.613 | 2.5 | 0.988 | > 5.12 | 0.978 | > 20
21 | T-T (oesophagus, adherent) | 0.78 | 8.21 | 0.984 | > 5.12 | 0.967 | > 20
22 | TALL-1 (T-cell lymphoblastic leukaemia, suspension) | 0.545 | 1.65 | 0.988 | > 5.12 | 0.986 | > 20
23 | TCCSUP (bladder, adherent) | 0.636 | 3.14 | 0.984 | > 5.12 | 0.984 | > 20
24 | TE-6 (oesophagus, adherent) | 0.981 | > 20 | 0.984 | > 5.12 | 0.977 | > 20
25 | TE-11 (oesophagus, adherent) | 0.904 | > 20 | 0.989 | > 5.12 | 0.99 | > 20
26 | TE-15 (oesophagus, suspension) | 0.44 | 0.838 | 0.979 | > 5.12 | 0.913 | > 20
27 | TGBC11TKB (stomach, adherent) | 0.65 | 3.09 | 0.992 | > 5.12 | 0.975 | > 20
28 | TGBC24TKB (biliary tract, adherent) | 0.774 | 7.33 | 0.983 | > 5.12 | 0.97 | > 20
29 | U031 (kidney, adherent) | 0.692 | 4.4 | 0.98 | > 5.12 | 0.984 | > 20
30 | U251 (glioma, adherent) | 0.287 | 0.324 | 0.984 | > 5.12 | 0.959 | > 20
31 | U-87-MG (glioma, adherent) | 0.684 | 4.5 | 0.984 | > 5.12 | 0.959 | > 20
32 | U-118-MG (glioma, adherent) | 0.694 | 4.81 | 0.983 | > 5.12 | 0.964 | > 20

The IC50 comes from the fitted curve, where viability falls to half of the control; a fit beyond the top or the lowest dose is shown as a bound at that dose. AUC, from the same fit, is the share of area under the viability curve across the 256-fold dose range; it is 1 without any effect and falls as sensitivity rises. Any top dose called inferred is not printed in the source and was worked back from the curve model.
